{
  "source": "paper PMC4336329",
  "about": "(PLoS ONE, 2015)",
  "note": "Hit rate of the full screen: of about 310,000 compounds, about 14,000 (4.5%) showed an effect of 50% or more. Effects have a minus sign here. The list shows a part of the results.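 Note: peak tail current of the secondary pulse compared with the same well before compound.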",
  "data": [
    {"target": "human ether-à-go-go-related gene (hERG) potassium channel (human, UniProt Q12809)", "sequence (Q12809 whole entry, looked up)": "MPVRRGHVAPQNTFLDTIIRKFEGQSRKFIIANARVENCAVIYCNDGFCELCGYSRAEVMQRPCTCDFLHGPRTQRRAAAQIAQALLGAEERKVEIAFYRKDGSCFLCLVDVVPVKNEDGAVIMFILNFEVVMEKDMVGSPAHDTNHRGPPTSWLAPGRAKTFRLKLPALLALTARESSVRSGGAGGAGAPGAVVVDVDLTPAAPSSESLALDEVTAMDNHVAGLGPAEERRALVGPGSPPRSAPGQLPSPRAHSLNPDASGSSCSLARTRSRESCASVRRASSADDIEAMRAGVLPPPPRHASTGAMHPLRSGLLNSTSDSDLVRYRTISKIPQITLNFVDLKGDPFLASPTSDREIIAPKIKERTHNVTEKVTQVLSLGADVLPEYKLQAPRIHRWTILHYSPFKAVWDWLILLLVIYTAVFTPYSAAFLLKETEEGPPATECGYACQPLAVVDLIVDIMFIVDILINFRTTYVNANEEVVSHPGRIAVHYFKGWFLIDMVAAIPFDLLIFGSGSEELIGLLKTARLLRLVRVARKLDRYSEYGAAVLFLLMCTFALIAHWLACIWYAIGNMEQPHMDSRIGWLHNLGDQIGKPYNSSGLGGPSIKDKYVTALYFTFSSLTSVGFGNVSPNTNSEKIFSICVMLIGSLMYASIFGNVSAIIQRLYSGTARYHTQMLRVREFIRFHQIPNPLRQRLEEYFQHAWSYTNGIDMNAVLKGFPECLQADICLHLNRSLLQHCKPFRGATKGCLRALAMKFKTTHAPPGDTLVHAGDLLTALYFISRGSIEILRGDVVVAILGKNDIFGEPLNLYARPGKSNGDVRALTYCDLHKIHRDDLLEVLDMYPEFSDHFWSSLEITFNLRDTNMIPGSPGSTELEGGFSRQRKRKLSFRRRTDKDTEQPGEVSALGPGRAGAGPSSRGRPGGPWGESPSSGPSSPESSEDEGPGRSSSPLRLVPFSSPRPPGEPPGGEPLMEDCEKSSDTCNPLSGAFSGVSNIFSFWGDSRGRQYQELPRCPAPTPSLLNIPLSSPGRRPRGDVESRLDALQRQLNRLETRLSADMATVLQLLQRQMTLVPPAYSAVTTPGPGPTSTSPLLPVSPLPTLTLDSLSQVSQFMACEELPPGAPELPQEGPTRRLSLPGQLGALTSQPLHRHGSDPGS", "experiment": "primary screen, population patch clamp on CHO cells stably expressing hERG", "units": {"hERG current change (%, negative = inhibition) at 10uM": "%"}, "values": [
      {"smiles": "O=C(CN1CCCN(Cc2ccc(F)cc2Cl)C1=O)NC1CCCCCCC1", "hERG current change (%, negative = inhibition) at 10uM": -29},
      {"smiles": "COC(=O)c1cc(Br)c(=O)n(CCc2ccc(O)cc2)c1.Cl", "hERG current change (%, negative = inhibition) at 10uM": -10},
      {"smiles": "COc1ccc(CCNC(=O)CCc2ccc(S(=O)(=O)NC(C)C)cc2)cc1", "hERG current change (%, negative = inhibition) at 10uM": -13.1},
      {"smiles": "Cc1cccc2c1cnn2C(=O)CCC(=O)N1CCC(C)CC1", "hERG current change (%, negative = inhibition) at 10uM": -14.1},
      {"smiles": "FC(F)(F)c1ccccc1CNCCc1c[nH]c2ccccc12.O=C(O)C(=O)O", "hERG current change (%, negative = inhibition) at 10uM": -9.6},
      {"smiles": "O=C(CCCN1C(=O)c2ccccc2C1=O)NCCC1=CCCCC1", "hERG current change (%, negative = inhibition) at 10uM": -3.16},
      {"smiles": "COc1cc(C2=NOC(C(=O)NC3CCCCC3)C2)cc(OC)c1OC", "note": "(stereo not shown)", "hERG current change (%, negative = inhibition) at 10uM": -8.08},
      {"smiles": "FC(F)Sc1ccc(NC(=S)NC(c2ccccc2)c2ccccc2)cc1", "hERG current change (%, negative = inhibition) at 10uM": 7.76},
      {"smiles": "COc1cc(/C=C2\\N=C(c3c(-c4ccccc4)noc3C)OC2=O)ccc1OC(C)=O", "hERG current change (%, negative = inhibition) at 10uM": 7.86},
      {"smiles": "O=C(COc1ccccc1Cl)N1CCN(c2ccc([N+](=O)[O-])c(N3CCOCC3)c2)CC1", "hERG current change (%, negative = inhibition) at 10uM": -25.7},
      {"smiles": "COc1cccc(C2C3=C(Nc4[nH]n(-c5ccccc5)c(=O)c42)c2ccccc2C3=O)c1", "note": "(stereo not shown)", "hERG current change (%, negative = inhibition) at 10uM": 9.64},
      {"smiles": "CC1(c2cccc(Br)c2)NC(=O)N(CC(=O)Nc2ccc(S(N)(=O)=O)cc2)C1=O", "note": "(stereo not shown)", "hERG current change (%, negative = inhibition) at 10uM": 27.5},
      {"smiles": "COC(=O)c1sc2ccccc2c1-n1cccc1C(=O)C(=O)Nc1ccc(OC)cc1", "hERG current change (%, negative = inhibition) at 10uM": -3.9},
      {"smiles": "CCCS(=O)(=O)N1CCCC(c2nc(-c3cccc(OC)c3)no2)C1", "note": "(stereo not shown)", "hERG current change (%, negative = inhibition) at 10uM": -9.63},
      {"smiles": "COc1cccc(/C=C(/C#N)c2ccc(F)cc2)c1OCc1cccc(C(=O)O)c1", "hERG current change (%, negative = inhibition) at 10uM": 11.4},
      {"smiles": "Cc1ccn2c(=O)nc(SCC(=O)c3ccccc3)nc2c1", "hERG current change (%, negative = inhibition) at 10uM": -17.5},
      {"smiles": "COC(=O)c1c(NC(=O)c2ccc([N+](=O)[O-])o2)sc2c1CCN(C(C)C)C2.Cl", "hERG current change (%, negative = inhibition) at 10uM": -25.1},
      {"smiles": "CC(=O)C1=C(O)C(=O)N(c2ccc(Br)cc2)C1c1cccc([N+](=O)[O-])c1", "note": "(stereo not shown)", "hERG current change (%, negative = inhibition) at 10uM": 24.5},
      {"smiles": "CCCCCCOC(=O)Nc1ccc(S(=O)(=O)Nc2cccc([N+](=O)[O-])c2)cc1", "hERG current change (%, negative = inhibition) at 10uM": 9.26},
      {"smiles": "CCCC(=O)Nc1nc2ccc(NC(=O)c3ccccc3F)cc2s1", "hERG current change (%, negative = inhibition) at 10uM": 6.02},
      {"smiles": "O=S(=O)(Nc1ccc(S(=O)(=O)N2CCCCC2)cc1)c1ccc(Br)s1", "hERG current change (%, negative = inhibition) at 10uM": -4.53},
      {"smiles": "Cc1nc2c(C(=O)NCCC(C)C)c[nH]n2c(=O)c1Cl", "hERG current change (%, negative = inhibition) at 10uM": 15},
      {"smiles": "COc1ccc(C)cc1NC(=O)c1cc(S(=O)(=O)N2CCC3(CC2)OCCO3)ccc1F", "hERG current change (%, negative = inhibition) at 10uM": -4.43},
      {"smiles": "COC(=O)C(O)(CC(=O)Nc1cc(OC)c(OC)c(OC)c1)C(F)(F)F", "note": "(stereo not shown)", "hERG current change (%, negative = inhibition) at 10uM": 16.8},
      {"smiles": "COc1ccc(N(CC(=O)NC2CCCC2)C(=O)c2ccc(N3CCCCC3)nc2)cc1", "hERG current change (%, negative = inhibition) at 10uM": 3.75},
      {"smiles": "Cn1c2ccccc2c2cnn(CC(=O)Nc3ccc(Cl)cc3)c(=O)c21", "hERG current change (%, negative = inhibition) at 10uM": 12.1},
      {"smiles": "COCCn1c(C)cc(C(=O)COC(=O)c2ccccc2Br)c1C", "hERG current change (%, negative = inhibition) at 10uM": -38.3},
      {"smiles": "CCCCn1c(N)c(N(CCOC)C(=O)c2cc(-c3ccncc3)nc3ccccc23)c(=O)[nH]c1=O", "hERG current change (%, negative = inhibition) at 10uM": 24.2},
      {"smiles": "COc1ccc(Br)cc1S(=O)(=O)Nc1cccc(C)n1.Cl", "hERG current change (%, negative = inhibition) at 10uM": 10.1},
      {"smiles": "O=C(CN1CCC(O)(c2cccc(C(F)(F)F)c2)CC1)NCCc1ccccc1", "hERG current change (%, negative = inhibition) at 10uM": -15.1},
      {"smiles": "CCn1c2ccccc2c2cc(NC(=O)C/C(C)=N/NC(=O)c3ccccc3N)ccc21", "hERG current change (%, negative = inhibition) at 10uM": 1.86},
      {"smiles": "CCCCC(=O)Oc1ccccc1C1SCc2cc(C)c(C)cc2CS1", "hERG current change (%, negative = inhibition) at 10uM": 17.6},
      {"smiles": "O=c1[nH]c2ccc(N/C(=N/S(=O)(=O)c3ccccc3)c3ccccc3)cc2[nH]1", "hERG current change (%, negative = inhibition) at 10uM": 22.7},
      {"smiles": "COc1cc(S(=O)(=O)N(CCc2ccccc2)Cc2cccs2)ccc1-n1cnnn1", "hERG current change (%, negative = inhibition) at 10uM": -3.57},
      {"smiles": "O=[N+]([O-])c1ccc(NCc2ccc(Cl)cc2)nc1", "hERG current change (%, negative = inhibition) at 10uM": 0.977},
      {"smiles": "CCCC(=O)N(c1ccc2oc(C)c(C(C)=O)c2c1)S(=O)(=O)c1ccc(C(=O)O)cc1", "hERG current change (%, negative = inhibition) at 10uM": 19.4},
      {"smiles": "CCOC(=O)N1CCC(Nc2c(NCCCN3CCN(C4CCCCC4)CC3)c(=O)c2=O)CC1", "hERG current change (%, negative = inhibition) at 10uM": 9.78},
      {"smiles": "Cc1cc(C)c2c(n1)SCC(=O)N2CC(=O)Nc1ccccc1Cl", "hERG current change (%, negative = inhibition) at 10uM": 0.318},
      {"smiles": "COC(=O)C(C)N1C(=O)S/C(=C\\c2cc(C)n(-c3ccccn3)c2C)C1=O", "note": "(stereo not shown)", "hERG current change (%, negative = inhibition) at 10uM": -17.7},
      {"smiles": "COc1cc(NC(=O)c2ccc(-c3csc(C)n3)cc2)c(OC)cc1Cl", "hERG current change (%, negative = inhibition) at 10uM": 17.9},
      {"smiles": "C=CCOc1ccc2nnc(C)n2n1", "hERG current change (%, negative = inhibition) at 10uM": -7.32},
      {"smiles": "O=C(Nc1cc(Cl)cc(Cl)c1)N1CCCN(Cc2ccccc2)CC1", "hERG current change (%, negative = inhibition) at 10uM": -76.3},
      {"smiles": "C/C(=N\\NC(=O)c1c[nH]c2ccccc12)c1ccccn1", "hERG current change (%, negative = inhibition) at 10uM": 12.7}
    ]}
  ]
}
